Where a chain is given by its changes, count along the chain named. Numbers in names are those of the source. ± gives the standard deviation of the averaged measurements. Laboratory Escherichia coli strains with one amino-acid change in an essential protein, pooled on minimal glucose agar with carbenicillin or gentamicin at twice the control MIC (plus kanamycin and chloramphenicol for the plasmids), 48 h. Fold change of barcode share against drug-free plates; higher = less susceptible. Active = above 20 in both replicates (the paper's putatively resistant). '<' = one read or none on drug, '>' = one read or none on a drug-free plate. Shares are relative, so most strains fall below 1 when a few take over. Listed are strains with at least 15 reads on both drug-free plates, and hits; most hits rest on fewer reference reads. Replicate rank correlation about 0.5. Edits are read from barcodes.
B1: trpB L188A (protein)
chain: MTTLLNPYFGEFGGMYVPQILMPALRQLEEAFVSAQKDPEFQAQFNDLLKNYAGRPTALTKCQNITAGTNTTLYLKREDLLHGGAHKTNQVLGQALLAKRMGKTEIIAETGAGQHGVASALASALLGLKCRIYMGAKDVERQSPNVFRMRLMGAEVIPVHSGSATLKDACNEALRDWSGSYETAHYMAGTAAGPHPYPTIVREFQRMIGEETKAQILEREGRLPDAVIACVGGGSNAIGMFADFINETNVGLIGVEPGGHGIETGEHGAPLKHGRVGIYFGMKAPMMQTEDGQIEESYSISAGLDFPSVGPQHAYLNSTGRADYVSITDDEALEAFKTLCLHEGIIPALESSHALAHALKMMRENPDKEQLLVVNLSGRGDKDIFTVHDILKARGEI
B2: trpB L188W (protein)
chain: B1 chain with A188W
B3: trpB L188Q (protein)
chain: B1 chain with A188Q
B4: trpB L188D (protein)
chain: B1 chain with A188D
B5: trpB L188P (protein)
chain: B1 chain with A188P
B6: trpB F204A (protein)
chain: B1 chain with A188L, F204A
B7: trpB F204W (protein)
chain: B1 chain with A188L, F204W
B8: trpB F204Q (protein)
chain: B1 chain with A188L, F204Q
B9: trpB V231A (protein)
chain: B1 chain with A188L, V231A
B10: trpB V231Q (protein)
chain: B1 chain with A188L, V231Q
B11: trpB F241W (protein)
chain: B1 chain with A188L, F241W
B12: trpC V446A (protein)
chain: MMQTVLAKIVADKAIWVEARKQQQPLASFQNEVQPSTRHFYDALQGARTAFILECKKASPSKGVIRDDFDPARIAAIYKHYASAISVLTDEKYFQGSFNFLPIVSQIAPQPILCKDFIIDPYQIYLARYYQADACLLMLSVLDDDQYRQLAAVAHSLEMGVLTEVSNEEEQERAIALGAKVVGINNRDLRDLSIDLNRTRELAPKLGHNVTVISESGINTYAQVRELSHFANGFLIGSALMAHDDLHAAVRRVLLGENKVCGLTRGQDAKAAYDAGAIYGGLIFVATSPRCVNVEQAQEVMAAAPLQYVGVFRNHDIADVVDKAKVLSLAAVQLHGNEEQLYIDTLREALPAHVAIWKALSVGETLPAREFQHVDKYVLDNGQGGSGQRFDWSLLNGQSLGNVLLAGGLGADNCVEAAQTGCAGLDFNSAVESQPGIKDARLLASAFQTLRAY

The proteins below were run against Escherichia coli (laboratory strain) (assay: barcode share on antibiotic plates over drug-free plates; higher = less susceptible). Details: antibiotic: carbenicillin; 2× MIC (3.1 µg/mL).
Protocol: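 A pool of E. coli strains, each edited to carry one amino-acid change in an essential protein, was grown for 48 h on minimal glucose agar with or without antibiotic; strain barcodes were sequenced; mean of two replicates.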

Protein	fold change of barcode share
B1	0.347 ± 0.12
B2	0.456 ± 0.27
B3	0.275 ± 0.1
B4	0.473 ± 0.26
B5	0.319 ± 0.024
B6	0.426 ± 0.18
B7	0.45 ± 0.039
B8	0.469 ± 0.0069
B9	0.256 ± 0.069
B10	0.672 ± 0.34
B11	0.379 ± 0.27
B12	0.535 ± 0.0078

Same assay, conditions: antibiotic: gentamicin; 2× MIC (MIC 0.45 µg/mL)

Protein	fold change of barcode share
B1	0.0113 ± 0.0043
B2	0.0464 ± 0.032
B3	0.401 ± 0.55
B4	< 0.00513
B5	0.0134 ± 0.012
B6	0.00966 ± 0.0074
B7	0.0066 ± 0.003
B8	0.0116 ± 0.0038
B9	0.012 ± 0.0095
B10	0.0102 ± 0.0042
B11	< 0.0112
B12	0.0121 ± 0.003

From the supplement of paper PMC11876631
